PubChem BioAssay AID651820 (National Center for Advancing Translational Sciences (NCATS), 2012)
Values joined by “and” are separate entries in the source; they are usually repeats but may differ in a detail not shown here. Equal values may be shown once. Screen size: about 340,000 compounds; about 12,000 (3.5%) were called active. The shares of active, inactive and inconclusive entries below differ from those in the screen. The call rests on the fitted dose curve; in most records, active means well fitted inhibition curve with a large enough effect; inconclusive means small, poorly fitted or top-dose-only effect, or another doubt; inactive means no such curve, though single readings can be large or run the other way. Where the call is inconclusive, the potency comes from a doubtful curve fit.

Test: qHTS Assay for Inhibitors of Hepatitis C Virus (HCV)
Conditions: Huh7.5.1 HCVcc-Cre (HCVcc is cell-culture hepatitis C virus) infection, luciferase reporter, 44 h; series mostly up to 41.8 µM
Outline: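 Compounds are dispensed onto cells plated 4 h earlier at 1,000 per well, with HCVcc-Cre virus (about 0.5 moi) added next. Following 44 h of culture, luminescent signal is measured for 15 sec after 15 min with substrate at room temperature.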
Potency means the concentration at half of the fitted maximal effect; tags describe the fitted curve by direction and shape.

| SMILES | Potency |
| --- | --- |
| CC(=O)c1cccc(NS(=O)(=O)c2ccc(N/C=C/C(=O)c3ccc(F)cc3)cc2)c1 | active: 11.2 µM |
| Cc1ccc(OCc2cc(C(=O)N(C)CCc3nc4ccccc4[nH]3)no2)cc1C | inconclusive: 22.4 µM [inhibitor, single point] |
| CCN1CCN(c2ccc(NC(=O)CCc3c(C)nc4c(-c5ccccc5)c(C)nn4c3C)cc2)CC1 | inconclusive: 2.82 µM [inhibitor, full curve] |
| CC(C)(C)c1cc(/C=N/O)cc(C(C)(C)C)c1O | inconclusive: 1.58 µM [inhibitor, full curve] |
| CCC(CC(C)(C)O)C(=O)NNC(=S)Nc1ccccc1 (stereo not given) | inactive |
| C/C(N=Nc1nc2ccccc2s1)=N\Nc1ccccc1O | inconclusive: 31.6 µM [inhibitor, single point] |
| Cc1ccc(CNC(=O)CSc2nc3n[nH]c(C)c3c(=N)n2-c2cccc(C)c2)cc1 | inconclusive: 11.2 µM [inhibitor, partial curve] |
| c1cc2nnnn2nc1N1CCCCCC1 | inconclusive: 0.501 µM [inhibitor, partial curve, poor fit] |
| NC(=O)c1c(NC(=O)CSc2nnc(-c3ccccc3)n2CC2CCCO2)sc2c1CCC2 (stereo not given) | inconclusive: 4.47 µM [inhibitor, partial curve] and inconclusive: 8.91 µM [inhibitor, partial curve] |
| COc1ccc(C2=NOC(Cn3nc(-c4ccccc4)cc3C(=O)NCc3cccs3)C2)cc1 (stereo not given) | inconclusive: 11.2 µM [inhibitor, partial curve] |
| CCC(=O)Nc1sc(Cc2ccc3c(c2)OCO3)c(C)c1C(N)=O | inactive |
| N=c1c2c(n(Cc3ccc(Cl)cc3)c3c1CCC3)CCC2 | inconclusive: 31.6 µM [inhibitor, single point] |
| COc1cc(OC)cc(-c2cc3nc(C)c(CCC(=O)NC(C)CCc4ccco4)c(C)n3n2)c1 (stereo not given) | inconclusive: 31.6 µM [inhibitor, single point] and inconclusive: 2.51 µM [inhibitor, full curve] |
| COc1ccc(NC(=O)C2CCCN(S(=O)(=O)c3ccc4c(c3)CC(C)N4C(C)=O)C2)cc1 (stereo not given) | inconclusive: 11.2 µM [inhibitor, partial curve] |
| Nc1nc(Nc2ccccc2F)nc(NCc2ccccc2)c1[N+](=O)[O-] | inconclusive: 31.6 µM [inhibitor, single point] |
| COCc1cc(C)nc(N2CCOCC2)c1C#N | inconclusive: 14.1 µM [inhibitor, single point] |
| CCc1cc(=O)oc2c(C)c(OC(C)C(=O)N3CC[C@@]4(O)CCCC[C@H]4C3)ccc12 (stereo not given in full) | active: 0.891 µM |
| N/C(=N\OC(=O)Nc1ccccc1)c1ncc([N+](=O)[O-])s1 | active: 12.6 µM |
| O=C1C(=Cc2ccco2)CCC1=Cc1ccco1 | inactive |
| COc1cc(NC(=S)NC(=O)c2ccc(C)cc2C)ccc1NC(=O)c1cccs1 | inconclusive: 0.501 µM [inhibitor, full curve, poor fit] |
| CC(C)OC(=O)c1cc2ccccc2oc1=O | inactive |
| CCOC(=O)C1=CN(Cc2cccc(F)c2)S(=O)(=O)N(C)C1CCc1ccccc1 (stereo not given) | inconclusive: 31.6 µM [inhibitor, single point] |

| SMILES | Potency |
| --- | --- |
| CC(=O)Nc1ccc(S(=O)(=O)Nc2cccc(-c3nc4ccccc4o3)c2)cc1 | active: 12.6 µM |
| O=C(N1CCOCC1)N1CCc2ccccc21 | inactive |
| CSc1ncc(Cl)c(C(=O)Nc2ccc(C)c(C)c2)n1 | inconclusive: 31.6 µM [inhibitor, single point] |
| COc1ccc(S(=O)(=O)N2CCCCCC2)cc1NC(=O)c1c2c(nc3ccccc13)CCN(Cc1ccccc1)C2 | inconclusive: 31.6 µM [inhibitor, single point] and inconclusive: 10 µM [inhibitor, single point] |
| Cc1ccc2cc(C#N)c(NCCNC(=O)C3CC3)nc2c1C | active: 10 µM |
| Cn1cc(/C=N/NC(=O)c2cccc([N+](=O)[O-])c2)c2ccccc21 | active: 10 µM |
| O=S(=O)(Nc1ccc(-c2nc3cccnc3s2)cc1)c1cccs1 | inconclusive: 3.98 µM [inhibitor, single point] |
| CCOC(=O)c1cnc2ccc(OC)cc2c1Nc1ccc2c(c1)OCCO2 | inconclusive: 28.2 µM [inhibitor, single point] |
| CO/N=C/CC(=O)Nc1ccc(F)cc1F | inactive |
| COc1ccc(-n2cc(CNCCc3nc(C)cc(C)n3)c(-c3ccccc3Cl)n2)cc1 | inconclusive: 31.6 µM [inhibitor, single point] |
| O=[N+]([O-])c1ccc(N2CCCC(C(F)(F)F)C2)c2ccncc12 (stereo not given) | active: 10 µM |
| O=C(Nc1nc(=O)c2ccccc2s1)c1ccc(Cl)cc1 | inactive |
| O=C(NCc1ccc(Cl)cc1)c1cnn2ccccc12 | inconclusive: 31.6 µM [inhibitor, single point] |
| O=C(N=C1SC2CS(=O)(=O)CC2N1CCc1ccc(F)cc1)C1CCCCC1 (stereo not given) | inactive |
| Cc1cc(C)c(C(=O)COc2cccnc2[N+](=O)[O-])cc1C | inactive |
| O=C(NCCOc1nc(N2CCCCC2)nc(N2CCCCC2)n1)Nc1ccccc1 | inconclusive: 8.91 µM [inhibitor, partial curve, poor fit] |
| O=C(CSc1ncnc2nc[nH]c12)N1CCN(c2ccc(Cl)cc2)CC1 | inconclusive: 31.6 µM [inhibitor, single point] |
| CC(OC(=O)c1ccccc1NCCO)C(=O)Nc1ccc(S(=O)(=O)N2CCOCC2)cc1 (stereo not given) | active: 8.91 µM |
| OC1CCCN(CC(O)COC(c2ccc(F)cc2)c2ccc(F)cc2)C1 (stereo not given) | inconclusive: 22.4 µM [inhibitor, single point] |
| COC(=O)C1=C(C)N(c2ccc(OC)cc2)C(C)=C(C(=O)OC)C1c1ccccc1 | inconclusive: 15.8 µM [inhibitor, single point] |
| COc1ccc(CN2C[C@H]3CCCN3c3cc(Br)ccc3S2(=O)=O)cc1 | inconclusive: 3.55 µM [inhibitor, partial curve] |
| CCOc1ccc(NC(=O)Cn2c(=O)n(CCCC(=O)NC3CCN(Cc4ccccc4)CC3)c(=O)c3ccccc32)cc1 | inconclusive: 7.94 µM [inhibitor, partial curve] |

| SMILES | Potency |
| --- | --- |
| CC1(c2ccc([N+](=O)[O-])cc2)NC(=O)N(CC(=O)c2ccc3c(c2)OCO3)C1=O (stereo not given) | inconclusive: 31.6 µM [inhibitor, single point] |
| CC(C)N(Cc1nc(-c2ccccc2)no1)C(=O)c1ccc(Cl)cc1 | inconclusive: 31.6 µM [inhibitor, single point] |
| COc1cccc(CN2C(=O)C(C)Oc3ccccc32)c1 (stereo not given) | inactive |
| O=C1N[C@@H](Cc2ccccc2)COC(=O)[C@@H](Cc2ccc(F)cc2)CC/C=C/C[C@H]1CC(=O)N(CCO)Cc1ccccc1 | inconclusive: 14.1 µM [inhibitor, single point] |
| COc1ccc(NC(=O)C(=O)NCCC2CCCCN2S(=O)(=O)c2cccs2)cc1 (stereo not given) | inconclusive: 6.31 µM [inhibitor, partial curve] |
| CNc1nc2c3ccccc3n(C(C)=O)c2s1 | inconclusive: 22.4 µM [inhibitor, single point] |
| O=C(c1cccn2c(=O)c3ccc(Cl)cc3nc12)N1CCN(Cc2ccc3c(c2)OCO3)CC1 | inactive |
| Oc1ccc(N2CCN(c3ncnc4sc(-c5ccccc5)cc34)CC2)cc1 | inconclusive: 14.1 µM [inhibitor, single point] |
| Cc1ccc(-c2cc(C(F)(F)F)nn2-c2ccc(S(N)(=O)=O)cc2)cc1 | inconclusive: 10 µM [inhibitor, single point] |
| CC(C)C(=O)Nc1cccc(C(=O)Nc2ccc(S(=O)(=O)Nc3nccs3)cc2)c1 | inactive |
| O=C(NCC(c1cccs1)N1CCc2ccccc21)c1ccccc1 (stereo not given) | inconclusive: 31.6 µM [inhibitor, single point] |
| FC(F)(F)c1cccc(-c2cc(C3CCNCC3)[nH]n2)c1 | inconclusive: 22.4 µM [inhibitor, single point] |
| CC1CC(C)CN(CCCNC(=O)c2ccc3c(c2)NC(=O)C(N2CCCCC2)S3)C1 (stereo not given) | inconclusive: 31.6 µM [inhibitor, single point] and inconclusive: 14.1 µM [inhibitor, single point] |
| CCN(CCN(C)C)C(=O)C1CCN(S(=O)(=O)c2c(C)noc2/C=C/c2ccccc2F)CC1 | inconclusive: 2.51 µM [inhibitor, partial curve] |
| COc1ccc(C(=O)c2c(C)oc3ccc(O)c(CN4CCOCC4)c23)cc1 | inactive |
| CCOC(=O)c1ccc(NC(=O)c2ccc(C)c(S(=O)(=O)N3CCOCC3)c2)cc1 | active: 5.01 µM |
| COc1ccc(OC)c(NC(=S)N(CCc2c(C)[nH]c3ccccc23)Cc2cccs2)c1 | inconclusive: 12.6 µM [inhibitor, partial curve] |
| C[C@]12CCC3C(CC[C@H]4C[C@@H](O)CC[C@]34C)C1CC[C@@H]2OC(=O)[C@H](N)CCCCN (stereo not given in full) | inconclusive: 10 µM [inhibitor, partial curve] |
| CCN1/C(=C/c2ccc3cc(C)ccc3[n+]2CC)Sc2cc(C)ccc21 | active: 2.51 µM |
| O=C(Nc1ccc(C(=O)N2CCN(c3ccccn3)CC2)cc1)c1ccc(Br)o1 | inactive |
| C/C=C/c1ccc(OCC(=O)Nc2ccncc2)c(OC)c1 | inconclusive: 10 µM [inhibitor, partial curve] |
